This note sets out measurements from the supplement of paper PMC8728848.

What all share (assay): glycan array binding signal (z-score within array); higher = stronger binding
What all share (conditions): glycan notation: IUPAC condensed, linker removed

Test [1] concerns the target Gal(b1-4)GlcNAc(b1-2)Man. The gist of the method:
(§1)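 Glycan array data came from 3228 arrays in the Consortium for Functional Glycomics database, and only arrays with an available protein sequence were kept. Glycan names were put into IUPAC-condensed notation, and columns mapping to the same glycan were averaged. The binding signal is a within-array Z-score, averaged across arrays of one protein sequence run at different concentrations or buffers and across linkers. A negative Z-score can be read as non-binding.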

The target of test [2] is Gal(b1-4)GlcNAc(b1-2)Man(a1-3)Man(b1-4)GlcNAc(b1-4)GlcNAc. The gist of the method:
as §1

The target in test [3] is Gal(b1-4)GlcNAc(b1-2)Man(a1-3)[Gal(b1-4)GlcNAc(b1-2)Man(a1-6)]Man(b1-4)GlcNAc(b1-4)GlcNAc. The method, boiled down:
as §1

In test [4] the target is Gal(b1-4)GlcNAc(b1-2)Man(a1-3)[Gal(b1-4)GlcNAc(b1-2)Man(a1-6)]Man(b1-4)GlcNAc(b1-4)[Fuc(a1-6)]GlcNAc. The gist of the method:
as §1

The target in test [5] is Gal(b1-4)GlcNAc(b1-2)Man(a1-3)[Gal(b1-4)GlcNAc(b1-2)Man(a1-6)][Gal(b1-4)GlcNAc(b1-4)]Man(b1-4)GlcNAc(b1-4)[Fuc(a1-6)]GlcNAc. The gist of the method: as §1
The target of test [6] is Gal(b1-4)GlcNAc(b1-2)Man(a1-3)[Gal(b1-4)GlcNAc(b1-2)Man(a1-6)][GlcNAc(b1-4)]Man(b1-4)GlcNAc(b1-4)[Fuc(a1-6)]GlcNAc. The gist of the method: as §1
In test [7] the target is Gal(b1-4)GlcNAc(b1-2)Man(a1-3)[GlcNAc(b1-2)Man(a1-6)]Man(b1-4)GlcNAc(b1-4)GlcNAc. The method, boiled down: as §1
Test [8] addresses Gal(b1-4)GlcNAc(b1-2)Man(a1-3)[GlcNAc(b1-4)][Gal(b1-4)GlcNAc(b1-2)Man(a1-6)]Man(b1-4)GlcNAc(b1-4)GlcNAc. The gist of the method: as §1
Test [9] has as its target Gal(b1-4)GlcNAc(b1-2)Man(a1-3)[Man(a1-6)]Man(b1-4)GlcNAc(b1-4)GlcNAc. The method, boiled down: as §1
Test [10] concerns the target Gal(b1-4)GlcNAc(b1-2)Man(a1-6)Man(b1-4)GlcNAc(b1-4)GlcNAc. The gist of the method:
as §1

Test [11] has as its target Gal(b1-4)GlcNAc(b1-2)Man(a1-6)[GlcNAc(b1-2)Man(a1-3)]Man(b1-4)GlcNAc(b1-4)GlcNAc. The method, boiled down: as §1
In test [12] the target is Gal(b1-4)GlcNAc(b1-2)Man(a1-6)[Man(a1-3)]Man(b1-4)GlcNAc(b1-4)GlcNAc. The gist of the method:
as §1

Test [13] addresses Gal(b1-4)GlcNAc(b1-2)[Gal(b1-4)GlcNAc(b1-4)]Man(a1-3)[Gal(b1-4)GlcNAc(b1-2)Man(a1-6)]Man(b1-4)GlcNAc(b1-4)GlcNAc. The gist of the method:
as §1

Test [14] concerns the target Gal(b1-4)GlcNAc(b1-2)[Gal(b1-4)GlcNAc(b1-4)]Man(a1-3)[Gal(b1-4)GlcNAc(b1-2)[Gal(b1-4)GlcNAc(b1-6)]Man(a1-6)]Man(b1-4)GlcNAc(b1-4)GlcNAc. The gist of the method: as §1
In test [15] the target is Gal(b1-4)GlcNAc(b1-2)[Gal(b1-4)GlcNAc(b1-4)]Man(a1-3)[GlcNAc(b1-4)][Gal(b1-4)GlcNAc(b1-2)Man(a1-6)]Man(b1-4)GlcNAc(b1-4)GlcNAc. The gist of the method:
as §1

Test [16] addresses Gal(b1-4)GlcNAc(b1-2)[Gal(b1-4)GlcNAc(b1-4)]Man(a1-3)[GlcNAc(b1-4)][Gal(b1-4)GlcNAc(b1-2)[Gal(b1-4)GlcNAc(b1-6)]Man(a1-6)]Man(b1-4)GlcNAc(b1-4)GlcNAc. The method, boiled down:
as §1

The target in test [17] is Gal(b1-4)GlcNAc(b1-2)[Gal(b1-4)GlcNAc(b1-6)]Man(a1-6)[Gal(b1-4)GlcNAc(b1-2)Man(a1-3)]Man(b1-4)GlcNAc(b1-4)GlcNAc. The gist of the method:
as §1

In test [18] the target is Gal(b1-4)GlcNAc(b1-2)[Gal(b1-4)GlcNAc(b1-6)]Man(a1-6)[Gal(b1-4)GlcNAc(b1-2)Man(a1-3)]Man(b1-4)GlcNAc(b1-4)[Fuc(a1-6)]GlcNAc. The gist of the method:
as §1

In test [19] the target is Gal(b1-4)GlcNAc(b1-2)[Gal(b1-4)GlcNAc(b1-6)]Man(a1-6)[GlcNAc(b1-4)][Gal(b1-4)GlcNAc(b1-2)Man(a1-3)]Man(b1-4)GlcNAc(b1-4)GlcNAc. The gist of the method: as §1
Test [20] concerns the target Gal(b1-4)GlcNAc(b1-2)[Gal(b1-4)GlcNAc(b1-6)]Man(a1-6)[GlcNAc(b1-4)][Gal(b1-4)GlcNAc(b1-2)[Gal(b1-4)GlcNAc(b1-4)]Man(a1-3)]Man(b1-4)GlcNAc(b1-4)[Fuc(a1-6)]GlcNAc. The gist of the method:
as §1

Test [21] deals with Gal(b1-4)GlcNAc(b1-3)Gal(b1-3)GalNAc. The method, boiled down:
as §1

Test [22] addresses Gal(b1-4)GlcNAc(b1-3)Gal(b1-3)GlcNAc. The method, boiled down: as §1

The other results are listed elsewhere or left out.

B1: rCNL (Clitocybe nebularis), B2ZRS9 (protein)
chain: SITPGTYNITNVAYTNRLIDLTGSNPAENTLIIGHHLNKTPSGYGNQQWTLVQLPHTTIYTMQAVNPQSYVRVRDDNLVDGAALVGSQQPTPVSIESAGNSGQFRIKIPNLGLALTLPSDANSTPIVLGEVDETSTNQLWAFESVSAV
For the molecule B1, the “glycan array binding signal (z-score)” value was -0.215 in test [1]; -0.275 in test [2]; -0.13 in test [3]; -0.126 in test [4]; -0.179 in [5]; -0.221 in test [6]. For the same molecule, the “glycan array binding signal (z-score)” value in test [7] is -0.137; in test [8], -0.207; in [9], -0.269; in [10], -0.178; in [11] it was -0.16; in [12] it was -0.166. Also, the “glycan array binding signal (z-score)” value in [13] is -0.017; in test [14] it was -0.022; in test [15] it was -0.152; in test [16], -0.041; in [17] it was -0.148; in [18], -0.2. In addition, the “glycan array binding signal (z-score)” value in test [19] was -0.157; in [20], -0.112; in test [21] it was -0.207; in test [22] it was -0.117.
